Data reported in ChEMBL document CHEMBL4888484, “Replenishing the malaria drug discovery pipeline: Screening and hit evaluation of the MMV Hit Generation Library 1 (HGL1) against asexual blood stage Plasmodium falciparum ,using a nano luciferase reporter read-out” (2022).
Screen size: about 150,000 compounds; about 540 (0.36%) showed an effect of 50% or more. This is one part of the list.

What follows are compounds tested on Plasmodium falciparum (assay: Primary screen in NF54 nanoGlo assay, in single point, at 2uM, 72h; a lower Z score goes with more inhibition). Details: timepoint 72 hour.
Assay type: functional, Erythrocyte

Row | SMILES | % Inhibition | Z score
1 | Cc1ccc(OCc2c(C(=O)N(C)Cc3ccsc3)c(=O)cc(C)n2CCN2CCOCC2)cc1 | -10% | 1.34
2 | CCc1ccc(S(=O)(=O)NCc2nc3cccnc3n2Cc2ccc(C)cc2)cc1 | 7% | -1.33
3 | COCCCNC(=O)NCCc1ncc(C)n1C1CCC1 | -6% | 0.85
4 | CO[C@@H](C(=O)N[C@H]1C[C@H](O)C1)c1ccccc1C(F)(F)F | -3% | 0.31
5 | O=C(CCc1cccc2ccccc12)NC1CCCC1 | -2% | 0.29
6 | CC(C)[C@@H]1CN(C(=O)C2=NN(CCO)C(=O)CC2)c2ccccc21 | 6% | -0.67
7 | COc1cccc(F)c1[C@H](C)NCc1ncc(C)o1 | 13% | -1.5
8 | CNC(=O)c1ccc(Cn2cc(-c3nc(C)n4ccccc34)nn2)o1 | -6% | 1.23
9 | Cc1nc(C2CC2)oc1C(=O)N[C@@H](C(C)C)C1(CO)CCCC1 | -5% | 0.87
10 | COc1ccc(CCNC(=O)N2CCN(c3cccc(C)c3C)CC2)cc1OC | 1% | -0.18
11 | Cc1ncsc1CCC(=O)N[C@H]1CC[C@@H](C(=O)Nc2ccccc2)C1 | -7% | 1.09
12 | Cn1cc(C(=O)C(=O)N2CCc3ccccc32)c2ccccc21 | -6% | 0.83
13 | Cn1cc(C2CCN(C(=O)c3ccc(=O)n(C)c3)CC2)cn1 | -11% | 1.37
14 | CCN(C(=O)[C@@H]1CC(F)(F)CN1C1CN(S(C)(=O)=O)C1)C(C)C | 1% | -0.18
15 | CCCCc1noc(CN[C@H]2CC(C)(C)OC2(C)C)n1 | 2% | -0.32
16 | CCCc1ccc(S(=O)(=O)N2CCN(c3cnn4c(C5CC5)nnc4c3)CC2)cc1 | -10% | 1.17
17 | O=C(Nc1ccc(Cl)cc1O)C1CC=CC1 | 2% | -0.35
18 | Cn1ccc([C@H](NC(=O)c2nccnc2N)c2ccc(Cl)cc2)n1 | -12% | 1.25
19 | CC1CC(C(N)=O)c2ccccc2N1CC(=O)OC(C)(C)C (stereo not drawn) | -4% | 0.6
20 | CCN(Cc1ccc(C)o1)C(=O)NC[C@@H](C(C)C)N(C)C | -6% | 0.79
21 | C[C@H](Oc1ccc(-c2ccccc2)cc1)C(=O)Nc1ccc(N(C)C)nc1 | -6% | 1.06
22 | CC(C)Cc1noc(CN(C)S(=O)(=O)NCc2ccccc2)n1 | -9% | 1.08
23 | OC[C@@H](O)CN(CCC(F)(F)F)C1C=CCCC1 (stereo partly drawn) | -3% | 0.31
24 | CCOc1ccc(NC(=O)Cn2c3cccc(Cl)c3c(=O)n2C(C)(C)C)cc1 | -1% | 0.08
25 | O=C(c1cc2cc(F)ccc2s1)N1CCC(n2ccnn2)CC1 | -23% | 2.6
26 | COc1cccc(NS(=O)(=O)c2ccc3onc(C(=O)N4CCCCC4)c3c2)c1 | -1% | 0.16
27 | CN(C)[C@H]1CCCN(Cc2cccc(-c3ccco3)c2)C1 | -4% | 0.81

Row | SMILES | % Inhibition | Z score
28 | Cc1ccc(CNC(=O)c2cccc(S(=O)(=O)N[C@H]3CCOC3)c2)o1 | -3% | 0.6
29 | CCn1cnc2ccc(-c3noc(Cc4cccc(OC)c4)n3)cc21 | -16% | 1.66
30 | CCc1ccc(-c2nccn2Cc2nnnn2-c2ccccc2)nc1 | 2% | -0.37
31 | CN(CC1(CO)CCCC1)c1nnc(C2CCC2)o1 | 8% | -1.45
32 | COCCOCC(=O)N1CCC2(CC1)C[C@@H](c1ccccc1)C(=O)N(C)C2 | -9% | 1.2
33 | COc1cc(=O)n(-c2ccccc2)cc1C(=O)N1CC(Oc2cc(C)n(C)c(=O)c2)C1 | -15% | 1.74
34 | O=C(CN1CCc2cccc(F)c21)NC[C@H]1CCCO1 | -11% | 0.97
35 | Cc1cc(C(=O)Nc2c(C)n(C)n(-c3ccccc3)c2=O)c(C)s1 | -1% | 0.15
36 | O=C(Nc1ccc2ccccc2c1)c1ccc(-n2cccn2)nc1 | 4% | -0.48
37 | Cc1cscc1-c1cc(N)nc(N2CCOCC2)n1 | -4% | 0.62
38 | O=C(Nc1ncccn1)[C@H]1C[C@@H]1C1CC1 | -11% | 2.05
39 | CS(=O)(=O)CCC(=O)N1CCCCC[C@H]1c1ccccc1C(F)(F)F | -2% | 0.28
40 | COc1ccccc1CNCc1ncc(Br)s1 | -6% | 0.6
41 | CCCN(CC(=O)O)S(=O)(=O)c1ccc(Cl)cc1Cl | -14% | 1.72
42 | O=C(NC[C@H]1COc2ccccc2O1)c1ccc(NC(=O)c2ccc(Cl)cc2Cl)cc1 | -10% | 1.32
43 | CCCNS(=O)(=O)c1cc2n(c1)CCCNC2=O | -16% | 1.86
44 | CN(C[C@H](O)COCCN1CCOCC1)S(=O)(=O)O | -5% | 0.83
45 | O=C(c1cccc(CNS(=O)(=O)c2cccs2)c1)N1CCCC1 | -34% | 4.02
46 | O=C(C1CCS(=O)(=O)CC1)N1C[C@@H]2CC[C@H]1CN(Cc1ccccn1)C2 | -2% | 0.29
47 | C[C@@H](CC(=O)N1CCN(c2ccccc2)CC1)n1ccnc1 | -3% | 0.45
48 | CCn1ccc(C(=O)NCc2nccn2C(C)C)cc1=O | -9% | 1.81
49 | COCCN1C(=O)c2ccccc2C(C(=O)N2CCCC(C(N)=O)C2)C1c1ccccc1 (stereo not drawn) | 5% | -0.58
50 | COC[C@H](C)N(C)S(=O)(=O)c1ccc(C(=O)O)cc1 | -7% | 0.98
51 | CC(C)c1csc(CN2CCC(CCC(=O)N3CCc4ccccc4C3)CC2)n1 | -8% | 1.54
52 | Cc1nnc(NS(=O)(=O)c2c(C)sc3ccccc23)s1 | 32% | -0.99
53 | Cc1ccc(N2C(=O)CN(S(=O)(=O)c3ccc(C)cc3)C[C@@]2(C)C(=O)NCCC(C)C)cc1 | -5% | 0.75
54 | COc1ccc(-c2noc([C@H](C)NC(=O)N3CCNC(=O)C3)n2)cc1OC | 40% | -5.5
